PMC11995724, “Antibiotic target discovery by integrated phenotypic and activity-based profiling of electrophilic fragments” (Cell chemical biology, 2025)
Screen size: about 3,200 compounds; about 110 (3.4%) showed an effect of 50% or more. The list shows a part of the results.

What follows are molecules tested on T1, V. cholerae SAD30. Details: relative growth, OD600, LB; 25 µM; inhibitor.
T1 construct: SAD30
Set-up: species or system S. aureus MSSA476 (TSB) or V. cholerae SAD30 (LB); 384-well bacterial growth screen at 25 uM, OD600 relative to DMSO control

`N#CC(=Cc1ccccc1Cl)C(=O)Nc1ccc(Cl)cc1` [8-B11, 3-(2-chlorophenyl)-N-(4-chlorophenyl)-2-cyanoprop-2-enamide] was tested. Which “% of control remaining” value did it give?
Its value is 81.6451%.

`CC(Cl)C(=O)Nc1cccnc1Cl` (centres unmarked) [6-C17, 2-chloro-N-(2-chloropyridin-3-yl)propanamide] was tested. Which “% of control remaining” value did it give?
Its value is 88.1221%.

How did the “% of control remaining” value turn out when `C=CC(=O)Nc1cnn(-c2ccccc2)c1C(F)F` [3-I03, N-[5-(difluoromethyl)-1-phenyl-1H-pyrazol-4-yl]prop-2-enamide] was run?
The value was 110.969%.

With `COc1ccc(NC(=O)C(C#N)=CC=Cc2ccccc2)cc1Cl` [8-M18, N-(3-chloro-4-methoxyphenyl)-2-cyano-5-phenylpenta-2,4-dienamide] as the molecule, how does the “% of control remaining” value read?
Its value is 75.5269%.

How did the “% of control remaining” value turn out when `O=C(CCl)Nc1nccc(Cl)n1` [6-C19, 2-chloro-N-(4-chloropyrimidin-2-yl)acetamide] was run?
Its value is 88.7288%.

Which “% of control remaining” value does the source give for `Cc1ccccc1NC(=O)C(C#N)=Cc1ccccc1Cl` [8-N05, 3-(2-chlorophenyl)-2-cyano-N-(2-methylphenyl)prop-2-enamide] here?
Its value is 76.4786%.

Which “% of control remaining” value does the source give for `CCn1cc(CN(C)C(=O)C(C)Cl)nn1` (centres unmarked) [6-L22, 2-chloro-N-[(1-ethyl-1H-1,2,3-triazol-4-yl)methyl]-N-methylpropanamide] here?
Its value is 97.0708%.

Which “% of control remaining” value does the source give for `COCCn1c(N)c(C(=O)CCl)c(=O)[nH]c1=O` [10-N12, 6-amino-5-(2-chloroacetyl)-1-(2-methoxyethyl)-1,2,3,4-tetrahydropyrimidine-2,4-dione] here?
The value was 98.344%.

Which “% of control remaining” value does the source give for `O=C(CCl)Nc1ccccc1S(=O)(=O)C(F)F` [4-B18, 2-chloro-N-(2-difluoromethanesulfonylphenyl)acetamide] here?
Its value is 103.17%.

`C=CC(=O)Nc1ccc(OCCC)c(C)c1` [1-C20, N-(3-methyl-4-propoxyphenyl)prop-2-enamide] was tested. Which “% of control remaining” value did it give?
Its value is 81.9133%.

With `CC(C)NC(=O)C(C#N)=Cc1ccc(F)cc1` [9-I09, 2-cyano-3-(4-fluorophenyl)-N-(propan-2-yl)prop-2-enamide] as the molecule, how does the “% of control remaining” value read?
Its value is 88.9871%.

For `Cc1ccc(C=C(C#N)C(=O)Nc2ccc(N3CCOCC3)cc2)s1` [8-A06, 2-cyano-3-(5-methylthiophen-2-yl)-N-[4-(morpholin-4-yl)phenyl]prop-2-enamide], which “% of control remaining” value is on record?
The value was 91.7063%.

How did the “% of control remaining” value turn out when `C=CC(=O)N1CCC(c2nnc(C)o2)CC1` [3-N04, 1-[4-(5-methyl-1,3,4-oxadiazol-2-yl)piperidin-1-yl]prop-2-en-1-one] was run?
The value was 103.558%.

For `COC1CCN(c2ccc(F)cc2CN(C)C(=O)C(C)Cl)CC1` (centres unmarked) [7-I11, 2-chloro-N-{[5-fluoro-2-(4-methoxypiperidin-1-yl)phenyl]methyl}-N-methylpropanamide], which “% of control remaining” value is on record?
The value was 64.8934%.

With `Cl.O=C(CCl)c1ccncc1F` [10-I09, 2-chloro-1-(3-fluoropyridin-4-yl)ethan-1-one hydrochloride] as the molecule, how does the “% of control remaining” value read?
Its value is 0%.

With `O=C1C=CC(=O)N1c1ccccc1F` [10-D17, 1-(2-fluorophenyl)-2,5-dihydro-1H-pyrrole-2,5-dione] as the molecule, how does the “% of control remaining” value read?
Its value is 26.1835%.

`Cc1cc(C(=O)CCl)c(C)n1C1CCS(=O)(=O)C1` (centres unmarked) [10-B12, 3-[3-(2-chloroacetyl)-2,5-dimethyl-1H-pyrrol-1-yl]-1lambda6-thiolane-1,1-dione] was tested. Which “% of control remaining” value did it give?
The value was 102.085%.

How did the “% of control remaining” value turn out when `CC(C)CC(=O)Nc1ccc(C(=O)CCl)cc1` [10-N06, N-[4-(2-chloroacetyl)phenyl]-3-methylbutanamide] was run?
Its value is 76.8362%.

Which “% of control remaining” value does the source give for `COc1cccc(NC(=O)C(C#N)=Cc2ccc(C)cc2C)c1` [8-C16, 2-cyano-3-(2,4-dimethylphenyl)-N-(3-methoxyphenyl)prop-2-enamide] here?
The value was 74.4392%.

For `N#Cc1cccc2c1CC[C@H]2NC(=O)CCl` [7-D06, 2-chloro-N-[(1R)-4-cyano-2,3-dihydro-1H-inden-1-yl]acetamide], which “% of control remaining” value is on record?
The value was 88.9476%.

`N#CC(=Cc1ccsc1)C(=O)Nc1nccs1` [9-C17, 2-cyano-N-(1,3-thiazol-2-yl)-3-(thiophen-3-yl)prop-2-enamide] was tested. Which “% of control remaining” value did it give?
The value was 85.3161%.

With `C=CC(=O)NCc1n[nH]c(=O)n1C1CC1` [3-N08, N-[(4-cyclopropyl-5-oxo-4,5-dihydro-1H-1,2,4-triazol-3-yl)methyl]prop-2-enamide] as the molecule, how does the “% of control remaining” value read?
Its value is 98.265%.

How did the “% of control remaining” value turn out when `C=CC(=O)NC1(C(N)=O)CCCC1C` (centres unmarked) [3-B09, 2-methyl-1-(prop-2-enamido)cyclopentane-1-carboxamide] was run?
The value was 108.146%.

With `CC(=O)N(Cc1ncc(C(C)C)o1)C1CCN(C(=O)C(C)Cl)C1` (centres unmarked) [6-J07, N-[1-(2-chloropropanoyl)pyrrolidin-3-yl]-N-{[5-(propan-2-yl)-1,3-oxazol-2-yl]methyl}acetamide] as the molecule, how does the “% of control remaining” value read?
Its value is 90.0938%.

With `COc1ccc(C2=NN(C(=O)CCl)C(c3cccc(C)c3)C2)cc1` (centres unmarked) [4-G20, 2-chloro-1-[3-(4-methoxyphenyl)-5-(3-methylphenyl)-4,5-dihydro-1H-pyrazol-1-yl]ethan-1-one] as the molecule, how does the “% of control remaining” value read?
Its value is 99.3746%.

Which “% of control remaining” value does the source give for `CCN(Cc1ccc2c(c1)OCO2)C(=O)CCl` [5-L07, N-[(1,3-dioxaindan-5-yl)methyl]-2-chloro-N-ethylacetamide] here?
Its value is 98.8547%.

Which “% of control remaining” value does the source give for `CC(Cl)C(=O)Nc1ccc(F)c(F)c1` (centres unmarked) [6-P08, 2-chloro-N-(3,4-difluorophenyl)propanamide] here?
Its value is 93.8857%.

For `N#CC(=Cc1cccc(Cl)c1)C(=O)Nc1ccccc1C(F)(F)F` [8-J13, 3-(3-chlorophenyl)-2-cyano-N-[2-(trifluoromethyl)phenyl]prop-2-enamide], which “% of control remaining” value is on record?
Its value is 71.448%.

With `CC(Cl)C(=O)N1CC(OCc2cccc3ccccc23)C1` (centres unmarked) [7-I03, 2-chloro-1-{3-[(naphthalen-1-yl)methoxy]azetidin-1-yl}propan-1-one] as the molecule, how does the “% of control remaining” value read?
Its value is 85.5113%.

`C=CC(=O)N1CCC(C(=O)N(C)CCn2cccn2)CC1` [2-J12, N-methyl-1-(prop-2-enoyl)-N-[2-(1H-pyrazol-1-yl)ethyl]piperidine-4-carboxamide] was tested. Which “% of control remaining” value did it give?
The value was 94.519%.

How did the “% of control remaining” value turn out when `CC(Cl)C(=O)NC(c1cc(Cl)ccc1Cl)C1CCOC1` (centres unmarked) [7-K21, 2-chloro-N-[(2,5-dichlorophenyl)(oxolan-3-yl)methyl]propanamide] was run?
The value was 73.7486%.

With `CC(Cl)C(=O)NC1CCN(c2ccccc2C(F)(F)F)C1` (centres unmarked) [7-C17, 2-chloro-N-{1-[2-(trifluoromethyl)phenyl]pyrrolidin-3-yl}propanamide] as the molecule, how does the “% of control remaining” value read?
The value was 55.6418%.

`Cc1ccc(S(=O)(=O)N2CCCCC2)cc1NC(=O)CCl` [4-L06, 2-chloro-N-[2-methyl-5-(piperidine-1-sulfonyl)phenyl]acetamide] was tested. Which “% of control remaining” value did it give?
The value was 100.927%.

With `C=CC(=O)N1CCC(F)CC1` [1-D14, 1-(4-fluoropiperidin-1-yl)prop-2-en-1-one] as the molecule, how does the “% of control remaining” value read?
The value was 79.2444%.

With `Cc1ccc(C=C(C#N)C(=O)Nc2ccc(C(=O)O)cc2)o1` [8-C14, 4-[2-cyano-3-(5-methylfuran-2-yl)prop-2-enamido]benzoic acid] as the molecule, how does the “% of control remaining” value read?
Its value is 75.119%.

`CC(Cl)C(=O)NCC1(C2CC2)CCC1` (centres unmarked) [7-A06, 2-chloro-N-[(1-cyclopropylcyclobutyl)methyl]propanamide] was tested. Which “% of control remaining” value did it give?
The value was 82.4715%.

With `CC(Cl)C(=O)N1c2ccccc2NC(=O)C1(C)C` (centres unmarked) [4-C08, 4-(2-chloropropanoyl)-3,3-dimethyl-1,2,3,4-tetrahydroquinoxalin-2-one] as the molecule, how does the “% of control remaining” value read?
Its value is 91.7835%.

For `O=C(CCl)Nc1oncc1-c1ccccc1` [6-I20, 2-chloro-N-(4-phenyl-1,2-oxazol-5-yl)acetamide], which “% of control remaining” value is on record?
The value was 95.5541%.

With `CC(Cl)C(=O)NC(C)c1ccc2c(c1)CCCC2` (centres unmarked) [6-A07, 2-chloro-N-[1-(5,6,7,8-tetrahydronaphthalen-2-yl)ethyl]propanamide] as the molecule, how does the “% of control remaining” value read?
Its value is 78.2633%.

Which “% of control remaining” value does the source give for `Cn1cc(S(=O)(=O)N2CCOCC2)cc1C(=O)NC(=O)CCl` [4-P20, N-(2-chloroacetyl)-1-methyl-4-(morpholine-4-sulfonyl)-1H-pyrrole-2-carboxamide] here?
The value was 108.001%.

Which “% of control remaining” value does the source give for `c1ccc(CSSCc2ccccc2)cc1` [10-O21, [(benzyldisulfanyl)methyl]benzene] here?
Its value is 100.37%.

Which “% of control remaining” value does the source give for `CNC(=O)C(C#N)=Cc1cccc(-c2ccncc2)c1` [9-L14, 2-cyano-N-methyl-3-[3-(pyridin-4-yl)phenyl]prop-2-enamide] here?
The value was 88.1713%.

Which “% of control remaining” value does the source give for `COc1ccccc1NC(=O)c1ccc(NC(=O)C(C)Cl)cc1` (centres unmarked) [5-C17, 4-(2-chloropropanamido)-N-(2-methoxyphenyl)benzamide] here?
The value was 85.5732%.

For `N#CC(=Cc1ccc(Cl)c(Cl)c1)C(=O)NCc1ccccc1` [8-B07, N-benzyl-2-cyano-3-(3,4-dichlorophenyl)prop-2-enamide], which “% of control remaining” value is on record?
The value was 66.6893%.

How did the “% of control remaining” value turn out when `O=C(CCl)Nc1ccc(Oc2cccc(Cl)c2)cc1` [6-C18, 2-chloro-N-[4-(3-chlorophenoxy)phenyl]acetamide] was run?
The value was 55.0574%.

`O=C(CCl)c1cc2c3c(c1)CC(=O)N3CCC2` [10-G16, 6-(2-chloroacetyl)-1-azatricyclo[6.3.1.0,4,12]dodeca-4(12),5,7-trien-2-one] was tested. Which “% of control remaining” value did it give?
Its value is 27.7421%.

For `O=C(CCl)Nc1ccc2ccccc2c1` [4-B12, 2-chloro-N-(naphthalen-2-yl)acetamide], which “% of control remaining” value is on record?
The value was 102.135%.
